This passage reports activity change, negative = inhibition results from PubChem BioAssay AID1745853 (National Center for Advancing Translational Sciences (NCATS), 2022).

The other results are listed elsewhere or left out. Shown are side measurements of this screen, not its main read-out; they come without a call.

Experiment in all cases: Primary Screen for Target Class Profiling of Small Molecule Inhibitors of Methyltransferases
Assay [1] concerns the target Glycine N-methyltransferase (Homo sapiens) (UniProt Q14749). The following applies: purified enzyme, MTase-Glo SAH luminescence; measured here: GNMT inhibition; at 40 µM; stronger effect = lower value. The gist of the method: (§1)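 Each enzyme was reacted with SAM and its substrate, with compounds tested once at 40 uM; SAH formed was read by MTase-Glo luminescence.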
Assay [2] concerns the target Guanidinoacetate N-methyltransferase (Homo sapiens) (UniProt Q14353). The following applies: purified enzyme, MTase-Glo SAH luminescence; measured here: GAMT inhibition; at 40 µM; stronger effect = lower value. The gist of the method:
as §1

Assay [3] deals with Histamine N-methyltransferase (Homo sapiens) (UniProt P50135). The note with it: purified enzyme, MTase-Glo SAH luminescence; measured here: HNMT inhibition; at 40 µM; stronger effect = lower value. The gist of the method:
as §1

In assay [4] the target is Nicotinamide N-methyltransferase (Homo sapiens) (UniProt P40261). The following applies: purified enzyme, MTase-Glo SAH luminescence; measured here: NNMT inhibition; at 40 µM; stronger effect = lower value. The method in brief: as §1
In assay [5] the target is Phenylethanolamine N-methyltransferase (Homo sapiens) (UniProt P11086). The following applies: purified enzyme, MTase-Glo SAH luminescence; measured here: PNMT inhibition; at 40 µM; stronger effect = lower value. The gist of the method:
as §1
On the % scale 0 is the no-effect control and ±100 the full control effect.

Regarding `Cc1noc2c(N3CC[S+](=O)([O-])CC3)cc(-c3cccnc3)nc12`, the activity change, negative = inhibition in assay [1] is -3.6%; in assay [2], -9.18%; in assay [3], -3.68%; in assay [4] it was -15.2%; in assay [5], -9.24%.
For the compound `CN(C)CCN(Cc1cccs1)c1ccccn1`, the activity change, negative = inhibition is -1.21% in assay [1]; -1.22% in assay [2]; -20.1% in assay [3]; -11.6% in assay [4]; -3.77% in assay [5].
The like results for `O=C1NN=C(c2ccccn2)C12CCN([S+](=O)([O-])c1cccc(C(F)(F)F)c1)CC2` were, in that order, -16.6%, -17.4%, -14.5%, -24.3% and -11.1%.
The like results for `CC(C)n1nc(-c2cc3cc(O)ccc3[nH]2)c2c(N)ncnc21` were, in that order, -26.6%, -12.8%, -44.3%, -34.9% and -31.3%.
The like results for `COCCn1c(C)cnc1CCNC(=O)NCC(C)C` were, in that order, -2.25%, -3.11%, -12.9%, -4.01% and -7.26%.
On to `CCCn1c(=O)c2ccc(C(=O)NC(C)C)cc2n2c(=O)[nH]nc12`, for which the activity change, negative = inhibition in assay [1] was -3.14%; in assay [2], 4.82%; in assay [3] it was 2.23%; in assay [4] it was 3.63%; in assay [5] it was -6.22%.
The like results for `CC1CCCCC1NC(=O)C1(C)Cn2c(cc3occc32)C(=O)N1Cc1ccc(F)cc1` (configuration not stated) were, in that order, -8.17%, 1.42%, -4.94%, -10% and -5.35%.
The like results for `Cc1ccccc1CN1C(=O)c2ccc(-c3ccccc3)n2CC1(C)C(=O)NC1CCCCC1` (configuration not stated) were, in that order, 1.82%, 2.52%, 2.24%, -1.9% and -2.49%.
Consider `CN(C)CCC[C@]1(c2ccc(F)cc2)OCc2cc(C#N)ccc21`, for which the values for the activity change, negative = inhibition in assay [1] and in assay [3] were 3.28% and -61.3%, respectively.
Consider `CCc1ccc(NC(=O)Cn2nc3n(Cc4ccc(F)cc4)c(=O)c4ccccc4n3c2=O)cc1`, for which the activity change, negative = inhibition in assay [1] was 3.2%; in assay [2] it was 0%; in assay [3], 2.75%; in assay [4] it was 0.176%; in assay [5], -0.131%.
The like results for `O=C(Cn1nc2n(c1=O)CCCC2)N1CCN(c2ccc(F)cc2)CC1` were, in that order, -2.25%, -8.1%, -2.88%, -7.77% and -2.69%.
The like results for `CCC(C)NC(=O)CSc1nnc2n(Cc3ccccc3)c(=O)c3ccccc3n12` (configuration not stated) were, in that order, -3.4%, 0%, 3.32%, -7.6% and -5.15%.
`CC1(C(=O)NC2CCCC2)Cn2cnc(C(=O)NCCC3=CCCCC3)c2C(=O)N1C1CC1` (configuration not stated): the activity change, negative = inhibition in assay [1] was -6.16%; in assay [2] it was 4.11%; in assay [3] it was -2.67%; in assay [4] it was -8.36%; in assay [5] it was -6.74%.
The like results for `Cc1ccc(NS(=O)(=O)c2cc3c(cc2C)n(C)c(=O)n3C)c(C)c1` were, in that order, -2.14%, 4.44%, -11.7%, -15.6% and -3.48%.
The like results for `CCOC(=O)C1=C(C)NC(C)=C(C(=O)OCC)C1c1c(F)c(F)c(F)c(F)c1F` were, in that order, -0.401%, 11.4%, 7.92%, -15.8% and -0.257%.
`Cc1ccc(CNC(=O)Cn2ccc3cc(S(=O)(=O)N4CCCC4)ccc32)o1`: the activity change, negative = inhibition in assay [1] worked out at 3.98%; in assay [2], 0%; in assay [3], 7.07%; in assay [4] it was 6.71%; in assay [5], 5.29%.
The like results for `COc1ccc(CN2C(=O)c3cc4ccccc4n3CC2(C)C(=O)NCc2ccccc2OC)c(OC)c1` (configuration not stated) were, in that order, -2.25%, 2.38%, -2.12%, -7.05% and -2.68%.
The like results for `COC1CC(O[C@H]2CC[C@@]3(C)C(CCC4C3[C@H](OC(C)=O)[C@@H](OC(=O)/C=C/c3ccccc3)[C@]3(C)C(C(C)=O)CC[C@]43O)C2)OC(C)C1OC1CC(OC)C(OC2CC(OC)C(OC3OC(C)C(OC4OC(CO)C(O)C(O)C4O)C(OC)C3O)C(C)O2)C(C)O1` (some centres not stated) were, in that order, -3.29%, 2.48%, -3.03%, -6.42% and 1.41%.
The like results for `Cn1c2c(c3ccccc31)C(C(=O)NCc1ccc(F)cc1)N(c1ccc3c(c1)OCO3)C(=O)CS2` (configuration not stated) were, in that order, -1.17%, 0%, 8.27%, 6.08% and 8.53%.
Take `Cc1cccc(CSc2nnc3n(CCC(C)C)c(=O)c4ccccc4n23)c1`: the activity change, negative = inhibition was -0.591% in assay [1]; 2.13% in assay [2]; 6.75% in assay [3]; -7.17% in assay [4]; 3.75% in assay [5].
`COc1ccc(-c2cc3n(n2)CC(C)(C(=O)NCc2ccccc2)N(Cc2ccccc2)C3=O)cc1` (configuration not stated): the activity change, negative = inhibition in assay [1] is 2.17%; in assay [2], 4.68%; in assay [3], 1.15%; in assay [4], 4.35%; in assay [5], -0.721%.
The like results for `CCOC(=O)c1cc2n(n1)CC(C)(C(=O)NC1CCCCCC1)N(Cc1ccccc1OCC)C2=O` (configuration not stated) were, in that order, -0.958%, 0.412%, -0.283%, -7.49% and 2.79%.
The like results for `Nc1nc(NCc2ccc(N3CCCC3=O)cc2)cc(C2CC(O)C2)n1` (configuration not stated) were, in that order, -6.16%, -9.17%, -19.8%, -15.8% and 7.56%.
Regarding `CCOC(=O)c1cnn(-c2ccccc2)c1NC(=O)c1cc2nc(-c3ccco3)cc(C(F)(F)Cl)n2n1`, the activity change, negative = inhibition was -4.37% in assay [1]; -19.2% in assay [2]; 4.43% in assay [3]; -36.6% in assay [4]; -6.08% in assay [5].
The like results for `NC(=O)N1c2ccccc2C=Cc2ccccc21` were, in that order, -2.54%, 2.37%, -1.16%, -8.4% and 4.44%.
The like results for `COc1cccc(NC(=O)CCc2nnc3n(CCCOC(C)C)c(=O)c4ccccc4n23)c1` were, in that order, -1.36%, 0%, 5.54%, 11.1% and 1.16%.
The like results for `O[C@H]1CC[C@@H](Cc2cc(CN3CCN(c4ccccc4)CC3)on2)O[C@@H]1CNCc1ccccc1` were, in that order, -3.74%, -4.62%, -0.705%, -2.15% and -3.24%.
On to `CC(C)Cn1c(=O)c2cc(F)ccc2n2c(SCc3ccccc3F)nnc12`, for which the activity change, negative = inhibition is 1.76% in assay [1]; 2.3% in assay [2]; 2.75% in assay [3]; 0.305% in assay [4]; -2.9% in assay [5].
For `C=CC(=O)N1CCN(C(=O)CNc2cc(I)c(Cl)cc2O)CC1`, the activity change, negative = inhibition in assay [1] was -5.87%; in assay [2], -12.8%; in assay [3] it was -0.499%; in assay [4], -24.7%; in assay [5] it was -36.7%.
